According to patent US20130333059A1 (Johns Hopkins, published 2013):

Experiments:
Assay in all cases: GST affinity chromatography of SKBR3 and MCF10A cell extracts, SDS-PAGE with silver/Coomassie stain
[1] = target: T1, poly(ADP) ribose polymerase (PARP) (human, UniProt P09874)
T1 construct: Endogenous protein from cell extracts; also called 110 kDa band

DNA-PKcs = target: T2, DNA-PKcs (human, UniProt P78527)
T2 construct: Endogenous protein from cell extracts; also called catalytic subunit of DNA-PK; >250 kDa band

Ku80 = target: T3, Ku80 (human, UniProt P13010)
T3 construct: also called Ku86; 85 kDa band

Ku70 = target: T4, Ku70 (human, UniProt P12956)
Chain of Ku70 (P12956 2-609 limits assumed): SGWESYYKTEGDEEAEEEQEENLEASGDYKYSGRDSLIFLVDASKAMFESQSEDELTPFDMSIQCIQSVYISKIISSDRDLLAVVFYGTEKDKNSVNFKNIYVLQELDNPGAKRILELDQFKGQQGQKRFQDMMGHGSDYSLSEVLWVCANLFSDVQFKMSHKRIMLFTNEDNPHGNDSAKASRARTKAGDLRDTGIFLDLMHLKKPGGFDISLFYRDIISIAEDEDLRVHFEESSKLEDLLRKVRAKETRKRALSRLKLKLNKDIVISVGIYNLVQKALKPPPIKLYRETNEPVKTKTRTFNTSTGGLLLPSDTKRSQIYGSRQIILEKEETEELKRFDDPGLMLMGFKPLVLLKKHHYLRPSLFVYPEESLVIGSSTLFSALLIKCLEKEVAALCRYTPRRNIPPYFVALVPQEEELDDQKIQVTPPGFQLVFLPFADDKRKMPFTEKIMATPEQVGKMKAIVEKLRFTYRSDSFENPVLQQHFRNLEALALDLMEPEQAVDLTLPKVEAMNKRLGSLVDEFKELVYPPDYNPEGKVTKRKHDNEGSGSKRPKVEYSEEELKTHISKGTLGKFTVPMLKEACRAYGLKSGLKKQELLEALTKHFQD
T4 construct: Endogenous protein from cell extracts; also called 70 kDa band; HsKu70

Measured: binding result

Chain of DNA-PKcs (P78527 whole entry): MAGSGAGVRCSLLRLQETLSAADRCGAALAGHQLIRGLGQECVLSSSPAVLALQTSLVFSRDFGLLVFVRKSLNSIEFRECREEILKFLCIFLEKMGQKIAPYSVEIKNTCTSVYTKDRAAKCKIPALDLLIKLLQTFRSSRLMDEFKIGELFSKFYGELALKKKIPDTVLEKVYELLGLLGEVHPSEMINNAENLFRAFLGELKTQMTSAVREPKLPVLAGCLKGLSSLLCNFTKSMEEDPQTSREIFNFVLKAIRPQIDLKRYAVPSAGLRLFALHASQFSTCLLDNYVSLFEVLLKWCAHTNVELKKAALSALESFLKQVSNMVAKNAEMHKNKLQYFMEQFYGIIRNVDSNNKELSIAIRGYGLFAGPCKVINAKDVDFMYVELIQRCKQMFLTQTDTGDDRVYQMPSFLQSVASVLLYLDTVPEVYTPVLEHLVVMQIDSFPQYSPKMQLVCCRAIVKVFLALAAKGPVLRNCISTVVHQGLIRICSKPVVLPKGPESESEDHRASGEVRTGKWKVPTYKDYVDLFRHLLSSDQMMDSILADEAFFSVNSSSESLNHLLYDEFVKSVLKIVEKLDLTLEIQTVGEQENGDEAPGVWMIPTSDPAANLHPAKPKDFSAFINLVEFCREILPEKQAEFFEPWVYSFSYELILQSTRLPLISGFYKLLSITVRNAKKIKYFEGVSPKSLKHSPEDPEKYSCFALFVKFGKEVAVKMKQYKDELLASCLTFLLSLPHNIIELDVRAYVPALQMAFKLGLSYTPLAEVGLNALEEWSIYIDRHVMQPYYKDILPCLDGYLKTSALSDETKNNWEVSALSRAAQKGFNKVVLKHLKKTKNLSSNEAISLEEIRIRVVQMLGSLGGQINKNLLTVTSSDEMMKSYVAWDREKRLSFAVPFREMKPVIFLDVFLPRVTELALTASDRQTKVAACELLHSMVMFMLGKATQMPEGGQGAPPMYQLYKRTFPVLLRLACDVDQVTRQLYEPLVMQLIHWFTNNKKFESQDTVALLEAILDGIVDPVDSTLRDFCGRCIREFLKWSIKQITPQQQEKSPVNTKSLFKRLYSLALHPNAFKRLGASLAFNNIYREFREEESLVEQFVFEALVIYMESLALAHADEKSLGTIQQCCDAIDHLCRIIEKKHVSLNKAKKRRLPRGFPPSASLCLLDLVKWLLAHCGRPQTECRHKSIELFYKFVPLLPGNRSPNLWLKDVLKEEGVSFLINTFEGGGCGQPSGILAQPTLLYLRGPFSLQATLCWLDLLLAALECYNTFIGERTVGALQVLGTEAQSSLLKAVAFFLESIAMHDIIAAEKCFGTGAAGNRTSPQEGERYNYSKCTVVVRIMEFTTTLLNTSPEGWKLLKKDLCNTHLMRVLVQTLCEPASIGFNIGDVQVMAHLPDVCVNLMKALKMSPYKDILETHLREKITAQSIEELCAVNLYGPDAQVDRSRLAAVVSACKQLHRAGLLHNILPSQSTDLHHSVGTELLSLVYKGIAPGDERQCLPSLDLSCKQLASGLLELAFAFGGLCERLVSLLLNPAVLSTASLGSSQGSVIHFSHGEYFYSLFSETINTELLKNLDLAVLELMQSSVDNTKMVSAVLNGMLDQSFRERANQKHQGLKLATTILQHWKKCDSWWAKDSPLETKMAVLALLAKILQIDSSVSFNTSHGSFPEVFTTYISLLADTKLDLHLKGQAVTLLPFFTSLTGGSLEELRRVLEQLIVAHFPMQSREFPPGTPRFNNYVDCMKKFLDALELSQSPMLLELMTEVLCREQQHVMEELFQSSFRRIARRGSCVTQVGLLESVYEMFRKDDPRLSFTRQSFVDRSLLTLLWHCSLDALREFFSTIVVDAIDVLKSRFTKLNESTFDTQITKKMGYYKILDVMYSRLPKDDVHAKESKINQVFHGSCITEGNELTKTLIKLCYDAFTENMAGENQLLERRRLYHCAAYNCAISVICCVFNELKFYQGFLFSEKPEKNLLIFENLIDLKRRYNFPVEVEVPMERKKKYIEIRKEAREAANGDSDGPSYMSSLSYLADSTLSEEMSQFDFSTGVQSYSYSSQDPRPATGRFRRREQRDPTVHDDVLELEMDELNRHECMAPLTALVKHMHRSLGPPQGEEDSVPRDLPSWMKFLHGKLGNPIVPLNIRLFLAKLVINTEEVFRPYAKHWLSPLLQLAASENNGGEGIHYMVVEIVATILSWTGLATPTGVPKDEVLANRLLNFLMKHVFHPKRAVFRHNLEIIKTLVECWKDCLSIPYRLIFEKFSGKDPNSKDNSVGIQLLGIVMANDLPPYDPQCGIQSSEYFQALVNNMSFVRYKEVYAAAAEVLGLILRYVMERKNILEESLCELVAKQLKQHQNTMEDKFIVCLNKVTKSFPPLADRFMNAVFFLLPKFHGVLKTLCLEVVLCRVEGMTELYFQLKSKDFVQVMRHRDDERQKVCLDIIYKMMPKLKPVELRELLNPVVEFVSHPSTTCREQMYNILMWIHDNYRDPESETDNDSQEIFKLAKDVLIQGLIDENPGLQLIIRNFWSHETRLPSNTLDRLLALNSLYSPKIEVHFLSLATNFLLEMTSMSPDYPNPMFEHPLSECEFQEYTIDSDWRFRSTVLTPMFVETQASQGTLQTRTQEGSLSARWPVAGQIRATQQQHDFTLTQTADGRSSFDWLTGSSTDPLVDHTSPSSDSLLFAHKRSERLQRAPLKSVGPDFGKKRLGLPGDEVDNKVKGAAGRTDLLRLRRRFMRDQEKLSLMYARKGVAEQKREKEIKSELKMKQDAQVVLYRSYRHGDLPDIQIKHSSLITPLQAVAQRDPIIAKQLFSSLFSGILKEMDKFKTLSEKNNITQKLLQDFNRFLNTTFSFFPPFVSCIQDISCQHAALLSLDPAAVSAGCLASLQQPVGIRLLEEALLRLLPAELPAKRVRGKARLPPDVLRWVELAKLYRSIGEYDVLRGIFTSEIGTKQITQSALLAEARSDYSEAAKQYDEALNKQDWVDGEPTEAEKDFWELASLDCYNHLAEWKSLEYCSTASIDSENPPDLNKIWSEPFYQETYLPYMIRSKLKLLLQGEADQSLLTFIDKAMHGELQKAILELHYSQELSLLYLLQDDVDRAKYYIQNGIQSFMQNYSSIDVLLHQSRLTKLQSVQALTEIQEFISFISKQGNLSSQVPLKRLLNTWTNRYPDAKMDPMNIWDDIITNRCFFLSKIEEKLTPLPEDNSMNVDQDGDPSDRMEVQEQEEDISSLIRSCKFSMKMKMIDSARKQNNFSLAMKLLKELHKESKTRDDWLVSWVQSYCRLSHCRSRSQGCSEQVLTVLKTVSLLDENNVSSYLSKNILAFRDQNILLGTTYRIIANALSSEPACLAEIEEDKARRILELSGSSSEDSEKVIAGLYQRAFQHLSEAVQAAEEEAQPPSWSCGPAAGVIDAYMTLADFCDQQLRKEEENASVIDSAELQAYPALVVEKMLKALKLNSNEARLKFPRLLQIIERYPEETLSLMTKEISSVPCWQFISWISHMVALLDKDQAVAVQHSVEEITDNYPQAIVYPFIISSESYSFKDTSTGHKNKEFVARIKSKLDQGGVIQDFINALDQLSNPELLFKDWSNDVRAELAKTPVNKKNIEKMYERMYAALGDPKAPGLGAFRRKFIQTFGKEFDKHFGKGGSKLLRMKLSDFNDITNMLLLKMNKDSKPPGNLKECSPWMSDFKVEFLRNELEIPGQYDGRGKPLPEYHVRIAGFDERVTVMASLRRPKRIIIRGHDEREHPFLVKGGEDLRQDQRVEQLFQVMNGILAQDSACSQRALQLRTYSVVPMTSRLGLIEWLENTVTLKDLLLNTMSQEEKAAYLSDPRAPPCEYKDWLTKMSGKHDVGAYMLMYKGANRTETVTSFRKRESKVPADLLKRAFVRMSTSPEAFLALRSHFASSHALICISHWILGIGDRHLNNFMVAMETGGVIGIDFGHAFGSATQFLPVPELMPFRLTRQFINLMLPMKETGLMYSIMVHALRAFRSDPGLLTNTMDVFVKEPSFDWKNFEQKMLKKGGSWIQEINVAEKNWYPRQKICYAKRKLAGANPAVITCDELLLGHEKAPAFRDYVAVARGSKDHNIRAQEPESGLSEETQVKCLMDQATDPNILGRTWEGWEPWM

B1: GST (other)
chain: not shown
notes: also called GST alone; GST-Sepharose
no binding: all assays above
